The values below come from ChEMBL document CHEMBL4888484, “Replenishing the malaria drug discovery pipeline: Screening and hit evaluation of the MMV Hit Generation Library 1 (HGL1) against asexual blood stage Plasmodium falciparum ,using a nano luciferase reporter read-out” (2022).

The term % Inhibition denotes the drop in the measured response relative to a control, in per cent.

Among all 150,000 compounds or so, about 540 (0.36%) showed an effect of 50% or more. The list shows a part of the results.

The assay deals with Plasmodium falciparum. Description: Primary screen in NF54 nanoGlo assay, in single point, at 2uM, 72h; a lower Z score goes with more inhibition. The class given is functional, Erythrocyte. To be noted: timepoint 72 hour.
For the molecule `CCOc1nc(C(=O)N(C)c2ccc(C(F)(F)F)nn2)co1`, the “% Inhibition” value is recorded as -8% and the Z score was 1.58.

Take `CN(CCc1ccccn1)[C@H]1CCCN(S(=O)(=O)c2cccc3cccnc23)C1`: the “% Inhibition” value is -6% and the Z score was 0.92.

As to `N#Cc1ccc(NC2CCC(F)C2)nc1` (configuration not stated), the “% Inhibition” value was found to be 3% and the Z score is -0.35.

As to `Cc1csc([C@@H](C)C(=O)NCc2nc(C(N)=O)co2)n1`, the “% Inhibition” value was -9% and the Z score was 1.38.

Take `COc1ccc(N(CC(=O)c2cc(C)n(OCc3ccccc3)c2C)S(=O)(=O)c2ccccc2)cc1`: the “% Inhibition” value is -22% and the Z score was determined as 3.62.

Regarding `COC1CS(=O)(=O)CC1NC(=O)NCc1cc(Cl)sc1Cl` (configuration not stated), the “% Inhibition” value is 8% and the Z score was -1.41.

As for `Cc1ccsc1C(C)NC[C@H]1CCCN1S(C)(=O)=O` (some centres not stated), the “% Inhibition” value was -13% and the Z score stood at 1.43.

On to `COc1cccn(CC(=O)N(C)C[C@H]2COc3ccccc3O2)c1=O`, for which the “% Inhibition” value was -15% and the Z score is 1.74.

Consider `CCCn1c(C(=O)NCCOC)cc2cc(NS(=O)(=O)c3ccc(Cl)cc3)ccc21`, for which the “% Inhibition” value was -15% and the Z score is 1.83.

Consider `N#Cc1cccc(Cn2cnc3c2c(=O)n(CC2CC2)c(=O)n3-c2ccc(Cl)cc2)c1`, for which the “% Inhibition” value was -8% and the Z score came out at 1.22.

In the case of `Cc1ccc(N(C)S(=O)(=O)c2c(-c3ccccc3)csc2C(=O)NCc2cccnc2)cc1C`, the “% Inhibition” value is -8% and the Z score worked out at 0.92.

For the molecule `Cc1ccc(Cl)cc1NC(=O)[C@@H]1CN(S(=O)(=O)c2ccccc2)c2cc(C(C)(C)C)ccc2O1`, the “% Inhibition” value came to 1% and the Z score was -0.11.

On to `Fc1cccc2c(NCc3ccc(CN4CCCC4)cc3)ncnc12`, for which the “% Inhibition” value is listed as -1% and the Z score amounted to 0.09.

With `CN(C)S(=O)(=O)c1ccc(C(=O)NCc2nccnc2-c2ccncc2)cc1`, the “% Inhibition” value worked out at 9% and the Z score is -1.14.

Consider `COC[C@H]1CN(C)CC12CCN(C(=O)Cc1ccc(Cl)cc1)CC2`, for which the “% Inhibition” value worked out at 9% and the Z score was -1.07.

As to `O=C(COc1ccccc1)N1CCOC[C@H](Oc2ccc(C(F)(F)F)cn2)C1`, the “% Inhibition” value is on record as -21% and the Z score is 3.33.

`O=C(Nc1cccc2ccccc12)c1ccc2c(c1)OCCO2`: the “% Inhibition” value was -8% and the Z score was 1.05.

For `Cc1cc(C)n2ncc(-c3noc(-c4ccnn4C4CCCC4)n3)c2n1`, the “% Inhibition” value was -6% and the Z score was found to be 0.65.

As to `CCN(Cc1ccccc1)C(=O)[C@H]1CCN(c2cn[nH]c(=O)c2)C1`, the “% Inhibition” value is -16% and the Z score was found to be 2.24.

Consider `CC(=O)c1ccc(N2CCN(/C(=N\c3ccc(C(=O)O)cc3)NC[C@H]3CCCO3)CC2)cc1`, for which the “% Inhibition” value is 5% and the Z score is -0.48.

As to `CCn1cc(-c2cc(C(=O)N3CCCN(C)C[C@@H]3C)c3ccccc3n2)cn1`, the “% Inhibition” value was -8% and the Z score is on record as 1.32.

For the molecule `COc1ccc(Cl)cc1N1CC[C@H](NC(=O)CCn2cncn2)C1`, the “% Inhibition” value was 0% and the Z score is listed as -0.04.

As for `CCN1CC2(CCN(Cc3cccc(O)c3)CC2)C[C@@H](c2ccccc2)C1=O`, the “% Inhibition” value was found to be 13% and the Z score is listed as -1.74.

For `CC(C)Cn1ccnc1NC(=O)c1cc2cccn2cn1`, the “% Inhibition” value is given as -17% and the Z score is listed as 2.63.

As for `CS(=O)(=O)N1CCC(C(=O)N(CCc2cccs2)C2CCOCC2)CC1`, the “% Inhibition” value was -11% and the Z score was determined as 1.75.

Take `Cc1ccccc1[C@H](CNC(=O)N(C)Cc1ccon1)N1CCC(C)CC1`: the “% Inhibition” value was -14% and the Z score was determined as 2.72.

Take `CC(=O)Nc1nc(C)c(S(=O)(=O)N[C@H]2C[C@H]3CN(C)CCN3C2)s1`: the “% Inhibition” value worked out at 2% and the Z score is -0.29.

For `O=C(NCc1nccnc1-c1cccs1)c1ccccn1`, the “% Inhibition” value was -11% and the Z score amounted to 2.

With `Cc1cc([C@H](C)NS(=O)(=O)c2c(C)nn(C)c2C)c(C)o1`, the “% Inhibition” value is -3% and the Z score worked out at 0.46.

On to `Cc1cc(OC2CN(C(=O)c3sc(C)nc3C)C2)n2ncnc2n1`, for which the “% Inhibition” value was -13% and the Z score came to 2.52.

Take `Cc1ccc(C(=O)COc2ccccc2N2C(=O)C3CCCCC3C2=O)cc1` (configuration not stated): the “% Inhibition” value is listed as -17% and the Z score came out at 2.23.

Regarding `Cc1ccc(S(=O)(=O)N2CCN(C(=O)CN3CCCC3)C2)cc1`, the “% Inhibition” value is listed as -5% and the Z score was found to be 0.77.

For the molecule `CCOCc1ccccc1CNC(=O)Nc1cc(C)ns1`, the “% Inhibition” value was -44% and the Z score came out at 5.17.

Take `CCOC(=O)c1cccnc1N[C@H]1CCc2nc(C)nn2C1`: the “% Inhibition” value is reported as -9% and the Z score stood at 1.15.

Take `O=C1[C@@H]2CC[C@@H](CN(c3ncnc4[nH]ccc34)C2)N1Cc1ccccc1`: the “% Inhibition” value is -20% and the Z score turned out to be 1.89.

Regarding `Cc1ccc([C@@H](NCC2CN(S(C)(=O)=O)C2)C2CCCC2)cc1`, the “% Inhibition” value is given as -6% and the Z score came to 0.57.

Regarding `Cc1ccc(S(=O)(=O)[C@H](C#N)c2nc3ccccc3nc2N2CCN(c3ccccc3)CC2)cc1`, the “% Inhibition” value was -13% and the Z score turned out to be 1.2.

As for `Cc1nc(N2CCCCC2)ncc1-c1cc(=O)[nH]c(Nc2ccc(F)cc2)n1`, the “% Inhibition” value is recorded as -14% and the Z score is recorded as 1.95.

For `Cc1cccc(N2CCC(n3ccnc3-c3cc4n(n3)CCNC4)CC2)c1`, the “% Inhibition” value is listed as -1% and the Z score turned out to be 0.22.

Consider `Cc1c(N2CCOCC2)c(C)n(Cc2c(F)cccc2F)c1C(=O)NCc1ccc2c(c1)OCO2`, for which the “% Inhibition” value is reported as 1% and the Z score is -0.09.

Turning to `CCc1nnc(CN2CCC3(CCC(=O)N([C@H]4CC[C@H](O)CC4)C3)CC2)o1`, the “% Inhibition” value is on record as -10% and the Z score was found to be 0.92.

On to `CCOC(=O)c1cc(C(C)(C)C)n(C2CCN(C(=O)[C@H](C)Oc3ccccc3)CC2)n1`, for which the “% Inhibition” value was -9% and the Z score was determined as 1.39.

As for `O=C(COc1cccc2c1CCC2=O)NC1CC1`, the “% Inhibition” value is recorded as -13% and the Z score was determined as 2.32.

As to `C#CCC1(C(=O)Nc2ccc3[nH]ccc3c2)CCCCC1`, the “% Inhibition” value was 12% and the Z score is -2.

For the molecule `O=C(Cn1cnnn1)NC1(c2cc(C(F)(F)F)ccc2Cl)CC1`, the “% Inhibition” value is on record as -51% and the Z score was found to be 5.95.

On to `O=C(Cc1ccc(F)cc1)Nc1ccc(N2CCN(C(=O)c3ccc(Cl)cc3Cl)CC2)nc1`, for which the “% Inhibition” value is reported as -7% and the Z score is 1.08.

Consider `O=C([C@H]1C[C@@H]1c1ccccc1)N1CCC(OCCc2ccccc2)CC1`, for which the “% Inhibition” value is recorded as 3% and the Z score is listed as -0.48.

Take `O=C(N[C@H]1CCc2nccn2C1)c1csc(-c2cccs2)n1`: the “% Inhibition” value was 5% and the Z score is recorded as -1.09.

On to `COc1ccc(CC(=O)Nc2nnc(-c3ccco3)o2)cc1C`, for which the “% Inhibition” value is -2% and the Z score stood at 0.22.

For the molecule `CCCNC(=O)CN(CCC)C(=O)Cc1ccccc1OC`, the “% Inhibition” value was determined as 1% and the Z score was -0.14.

Turning to `Cc1cc(C(=O)N[C@H]2CCN(Cc3ccc(N(C)C)nc3)C[C@@H]2O)no1`, the “% Inhibition” value is reported as -4% and the Z score came out at 0.42.
